Screen size: about 270,000 compounds; about 5,800 (2.1%) were called active. This list was built around the results that the source calls inconclusive (neither active nor inactive); the mix of calls is not that of the screen. Calls follow the shape of the dose curve; as a rule, active = well fitted inhibition curve with a large enough effect; inconclusive = small, poorly fitted or top-dose-only effect; inactive = flat fitted curve, though single readings scatter. Potencies of inconclusive entries are doubtful fits and often do not repeat.
biological target: Microtubule-associated protein tau (Homo sapiens) (UniProt P10636); assay: qHTS for Inhibitors of Tau Fibril Formation, Thioflavin T Binding; conditions: recombinant tau K18 P301L (four-repeat tau fragment), heparin-induced fibrillization, ThT fluorescence; series mostly up to 57.4 µM; activity, negative = inhibition: at the top concentration; also: nearly all actives have a fitted effect of over 55% in size
Procedure, shortened: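 Heparin-induced (20 uM) aggregation of recombinant human K18 P301L tau, 15 uM unlabeled with 0.24 uM labeled, pH 7 acetate buffer, 6 hr at 37 C with compound. Fibrils quantified by 30 uM ThT fluorescence after 1 hr ambient incubation.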
% is scaled to controls: 0 for no effect and ±100 for the full control effect; potency is read from the fitted curve at half-maximal effect; tags tell the direction and shape of the fitted curve.

Sequence of UniProt P10636 (P10636 whole entry, looked up, the tested form may be a part): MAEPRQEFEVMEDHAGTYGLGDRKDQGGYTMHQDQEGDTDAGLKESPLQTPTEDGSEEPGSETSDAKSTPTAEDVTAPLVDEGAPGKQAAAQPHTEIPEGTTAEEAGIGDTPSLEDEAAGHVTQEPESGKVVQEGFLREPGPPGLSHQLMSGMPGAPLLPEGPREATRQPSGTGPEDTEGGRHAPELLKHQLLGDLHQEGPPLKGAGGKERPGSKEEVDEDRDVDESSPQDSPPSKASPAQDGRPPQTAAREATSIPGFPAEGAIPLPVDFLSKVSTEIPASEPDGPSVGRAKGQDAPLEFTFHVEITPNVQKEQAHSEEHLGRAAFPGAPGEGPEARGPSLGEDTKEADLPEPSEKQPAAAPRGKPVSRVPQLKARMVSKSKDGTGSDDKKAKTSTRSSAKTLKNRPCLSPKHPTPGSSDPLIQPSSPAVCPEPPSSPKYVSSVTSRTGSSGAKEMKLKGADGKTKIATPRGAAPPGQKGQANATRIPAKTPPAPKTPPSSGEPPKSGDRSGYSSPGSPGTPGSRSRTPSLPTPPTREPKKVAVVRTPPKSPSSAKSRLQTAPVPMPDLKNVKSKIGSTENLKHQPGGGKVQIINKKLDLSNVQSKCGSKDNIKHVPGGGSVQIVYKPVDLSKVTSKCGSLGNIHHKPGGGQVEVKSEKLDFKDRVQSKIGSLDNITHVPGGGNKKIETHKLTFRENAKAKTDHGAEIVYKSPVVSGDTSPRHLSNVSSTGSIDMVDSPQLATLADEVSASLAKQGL

Structure (SMILES) | activity, negative = inhibition | Potency
O=C(CSc1nc2ccsc2c(=O)n1Cc1ccccc1Cl)NCc1ccc(F)cc1 | inactive: 3.22% | 
O=C(c1ccco1)N1CCn2c1nc1ccccc12 |  | inconclusive: 35.5 µM [inhibitor, single point]
S=c1[nH]nc(-c2ccccn2)n1/N=C/c1ccc(-c2ccccc2Cl)o1 |  | inconclusive: 20 µM [inhibitor, partial curve]
O=c1c(Cl)c(Cl)cnn1-c1ccccc1 |  | inconclusive: 31.6 µM [inhibitor, single point]
O=C(COC(=O)c1cccs1)c1ccc2c(c1)OCCO2 | inactive: -1.38% | 
Cc1c(Cl)cccc1NC(=O)Cn1cc(C(=O)c2cccs2)c2ccccc21 |  | inconclusive: 25.1 µM [inhibitor, partial curve]
Cc1ccc2cccc(NC(=O)COc3ccccc3Cl)c2n1 |  | inconclusive: 25.1 µM [inhibitor, partial curve]
COc1ccc(C(CCN2CCCC2)c2c(O)cc(OC)cc2OC)cc1 (configuration not stated) |  | inconclusive: 39.8 µM [inhibitor, single point]
C1CSC2(N1)C1CC3CC(C1)CC2C3 (configuration not stated) |  | inconclusive: 28.2 µM [inhibitor, single point]
Cc1ccc2nc(N(CCCN(C)C)C(=O)c3ccc4c(c3)CCCC4)sc2c1 |  | inconclusive: 12.6 µM [inhibitor, partial curve]
Cc1ccc(-c2nc(CS(=O)CC(=O)N3CCN(c4cccc(Cl)c4)CC3)c(C)o2)cc1 (configuration not stated) |  | inconclusive: 17.8 µM [inhibitor, partial curve]
O=C(Nc1c2c(nn1-c1ccccc1)CS(=O)C2)c1ccc(S(=O)(=O)N2CCOCC2)cc1 (configuration not stated) | inactive: -10.3% | 
COC(=O)c1c(NC(=O)Cc2coc3cc(C)ccc23)sc2c1CCCC2 |  | inconclusive: 15.8 µM [inhibitor, partial curve]
COc1ccccc1CNC(=O)c1cccn1-c1nnc(N2CCCCC2)s1 | inactive: -6.1% | 
Cc1cc(Br)cn2ccnc12 | inactive: -3.22% | 
O=C(COc1ccc2ccccc2c1)Nc1nccs1 |  | inconclusive: 1 µM [inhibitor, partial curve, poor fit]
COc1ccc(-c2cc(C)no2)cc1S(=O)(=O)NCc1cccs1 | inactive: -1% | 
COc1cc(/C=N\NC(=O)C2COc3ccccc3O2)cc(OC)c1O (configuration not stated) |  | inconclusive: 28.2 µM [inhibitor, single point]
Cc1nc(C)c(C(=O)N/N=C/c2cn(C)c3ccccc23)s1 |  | inconclusive: 12.6 µM [inhibitor, partial curve]
CCc1cccc(NC(=O)CN2Cc3ccccc3C2=O)c1 | inactive: -5.89% | 
O=C(CSc1nc(-c2cccc(F)c2)[nH]c1-c1ccccc1)Nc1ccc2c(c1)OCCO2 |  | inconclusive: 0.891 µM [inhibitor, partial curve, poor fit]
Cc1cccc(OCc2ccc(-c3nc(C#N)c(NCc4cccnc4)o3)o2)c1 |  | inconclusive: 15.8 µM [inhibitor, partial curve]
COC(=O)c1cc(S(=O)(=O)C(C)C)c(S(C)=O)s1 (configuration not stated) |  | inconclusive: 39.8 µM [inhibitor, single point]
CCOC(=O)c1c(C)[nH]c(C(=O)CSc2ccc(Cl)cc2)c1C | inactive: -17.9% | 

Structure (SMILES) | activity, negative = inhibition | Potency
COc1cc(N=CC2=C(O)c3ccccc3C2=O)cc(OC)c1 |  | inconclusive: 7.94 µM [inhibitor, partial curve]
CC(=O)Nc1ccc(S(=O)(=O)NCCc2cn3ccsc3n2)cc1 | inactive: 8.8% | 
Cn1c(SCC(=O)Nc2ccc(N3CCOCC3)cc2)nnc1-c1ccccc1 |  | inconclusive: 3.55 µM [inhibitor, partial curve]
CC(=O)N1CCN(C2=NC(=O)C(=C3CCCCC3)S2)CC1 | inactive: -6.79% | 
CCOc1ccccc1NC(=O)c1c(NCc2cccs2)sc2c1CCC(C)C2 (configuration not stated) | inactive: -14.6% | 
Cc1nc(SCC(=O)Nc2ccccc2)c2oc3ccccc3c2n1 | inactive: -18.9% | 
O=C(NCc1ccco1)/C(=C/c1ccco1)NC(=O)c1ccc(Br)o1 |  | inconclusive: 39.8 µM [inhibitor, single point]
COc1ccc(-n2c(N)c(C(=O)Nc3c(C)n(C)n(-c4ccccc4)c3=O)c3nc4ccccc4nc32)cc1 |  | inconclusive: 28.2 µM [inhibitor, partial curve, poor fit]
CC1CN(S(=O)(=O)c2ccc(NC(=O)c3cc(-c4ccccc4O)n[nH]3)cc2)CC(C)O1 (configuration not stated) |  | inconclusive: 6.31 µM [activator, partial curve]
COc1cc(C(=S)N2CCCC2)cc(OC)c1O | inactive: 1.84% | 
CCN1CCS/C1=C/C=C/C1=[N+](CC)CCS1 |  | inconclusive: 15.8 µM [inhibitor, single point]
CCN(CCCNC(=O)c1c(C)cc(=O)oc1C)c1ccccc1 | inactive: -19.2% | 
Nn1c(SCCOc2ccccc2)nnc1-c1cccnc1 |  | inconclusive: 14.1 µM [inhibitor, partial curve]
CC(C)(C)OC(=O)NCCCC[C@H](NC(=O)c1[nH]cnc1C(=O)N[C@@H](Cc1ccccc1)C(=O)OC(C)(C)C)C(=O)OC(C)(C)C | inactive: -12.7% | 
COc1cccc(CS(=O)(=O)c2nnnn2-c2ccc(F)cc2Br)c1 | inactive: -1.53% | 
Cc1cccc(NC(=S)NNC(=O)c2ccccc2Br)c1 | inactive: -15% | 
Cc1cccc(-n2cc3c(=O)n(C)c(=O)n(C)c3c2)c1 | inactive: -6.27% | 
Fc1ccc(OCCOCCOc2cccc3[nH]ccc23)cc1 |  | inconclusive: 17.8 µM [inhibitor, partial curve]
CCOC(=O)c1c(NC(=O)Cn2nc(C(F)(F)F)cc2C)sc(C)c1C | inactive: 1.23% | 
CCCOc1ccc(C(=O)Nc2ccc(NC(=O)c3ccccc3)c(Br)c2)cc1 |  | inconclusive: 0.501 µM [inhibitor, full curve, poor fit]
O=S(=O)(NCCc1ccccc1)c1ccc(S(=O)(=O)N2CCCCC2)cc1 |  | inconclusive: 3.98 µM [inhibitor, single point]
O=C(CCCn1cnc([N+](=O)[O-])n1)Nc1cccc2ccccc12 |  | inconclusive: 28.2 µM [inhibitor, single point]
CC1CCN(c2ccc(C(=O)Nc3nnc(C4CC4)s3)cc2[N+](=O)[O-])CC1 |  | inconclusive: 7.08 µM [inhibitor, partial curve]
